Laboratory results published in the antibiotic and cytotoxicity screens of Wong et al. (2023).
The other results are listed elsewhere or left out.

Experiments:
[1] = tested on: HSkMC (human skeletal muscle cells); experiment: cytotoxicity call (relative viability < 0.9); settings: 10 µM
[2] = tested on: HepG2; experiment: cytotoxicity call (relative viability < 0.9); settings: 10 µM
[3] = tested on: S. aureus RN4220; experiment: growth inhibition call (relative growth <= 0.2); settings: 50 µM

| Structure (SMILES) | cytotoxicity call [1] | cytotoxicity call [2] | growth inhibition call [3] |
| --- | --- | --- | --- |
| C[C@H](CO)N1C[C@H](C)[C@@H](CN(C)C(=O)c2cnccn2)Oc2cc(C#CCC3CCCC3)ccc2S1(=O)=O | inactive | active | inactive |
| CC(C=CC1=C(C)CCCC1(C)C)=CC=CC(C)=CCO | inactive | inactive | inactive |
| O=C(C[C@@H]1CC[C@H]2[C@@H](COC[C@H](O)CN2C(=O)c2ccccn2)O1)NC1CCC1 | inactive | inactive | inactive |
| Cc1noc(C)c1S(=O)(=O)Nc1cccc2c1O[C@@H](CN(C)S(=O)(=O)c1ccc(Cl)cc1)[C@@H](C)CN([C@@H](C)CO)C2=O | inactive | inactive | inactive |
| O=C(C[C@@H]1CC[C@@H]2[C@H](COC[C@H](O)CN2S(=O)(=O)c2ccccc2Cl)O1)NCc1ccccc1Cl | inactive | inactive | inactive |
| C1CN(C2CCSCC2)CCN1 | inactive | inactive | inactive |
| O=C(C[C@@H]1CC[C@H]2[C@@H](COC[C@H](O)CN2Cc2cc(F)ccc2F)O1)N[C@H]1CCN(Cc2ccccc2)C1 | inactive | inactive | inactive |
| C[C@H](CO)N1C[C@H](C)[C@H](CN(C)C(=O)Nc2cccc3ccccc23)OCc2cnnn2CCCC1=O | inactive | inactive | inactive |
| Cc1noc(C)c1NC(=O)Nc1ccc2c(c1)C(=O)N([C@@H](C)CO)C[C@H](C)[C@H](CN(C)S(=O)(=O)c1ccccc1)O2 | inactive | inactive | inactive |
| O[C@@H](COc1cccc2ncccc12)CN1CCN([C@@H]2c3ccccc3[C@@H]3[C@H](c4ccccc42)C3(F)F)CC1 | active | inactive | inactive |
